Article PMC12040169 (PLOS Biology, 2025)
The other results are listed elsewhere or left out.

The compounds below were run on T1, C. trachomatis L2/434/Bu expressing GFP (CTL2-GFP). Conditions: total inclusion area; 28.5 h, 10 µM; inhibitor.
T1 construct: L2/434/Bu GFP intracellular growth in HeLa cells
Parameters: species or system HeLa; C. trachomatis total inclusion area by high-content imaging, normalised to DMSO
Outline: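 Bulk GFP and resorufin signals were read first. Wells were then fixed, stained with Hoechst and imaged to detect GFP inclusions and host nuclei. MICs followed the previously described calculation.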

SMILES | % of control remaining
COc1cc(CNc2nnn[nH]2)cc(Br)c1OCc1ccc(Cl)cc1 [CBK300496] | 96.5495
COC(=O)C1CCCN1CC(=O)NCc1ccc(OCC(N)=O)cc1 (stereo not shown) [CBK304970] | 43.6287
CCN1CCN(c2c(Cl)cccc2NC(=O)c2ccc(-c3cccc([N+](=O)[O-])c3)o2)CC1 [CBK268596] | 108.884
Cc1ocnc1C(=O)NCC1CCN(c2ccccc2F)C1 (stereo not shown) [CBK304671] | 83.4878
CCS(=O)(=O)N1CCC(NC(=O)NC(C)c2ccccc2Cl)CC1 (stereo not shown) [CBK242304] | 63.3122
CSc1nc(NC(=O)C(C)c2ccccc2)cc(N2CCNCC2)n1 (stereo not shown) [CBK026742T] | 90.1208
O=c1[nH]c(=O)c2cc(S(=O)(=O)N3CCCC(CN4CCCC4)C3)ccc2[nH]1 (stereo not shown) [CBK286392] | 135.018
C=CCn1c(-c2sc(NC(=O)c3ccc(C)c(C)c3)nc2C)n[nH]c1=S [CBK295294] | 113.382
Cc1cc(C)c(S(=O)(=O)Nc2nnc(C(F)(F)F)s2)c(C)c1 [CBK045507] | 101.772
COCC(=O)N1CCC(c2cc3nc(C(F)(F)F)ccc3[nH]2)CC1 [CBK282185] | 79.2999
c1ccc(Oc2ccccc2-c2cc(N3CCN(c4ccccn4)CC3)ncn2)cc1 [CBK091083] | 110.428
Cc1nsc2c1[C@H]1[C@H](O)[C@H](O)C[C@H]1C1(CCC1)N2 [CBK303258] | 72.0354
COc1cc(C=CC(=O)O)ccc1OCC(=O)NCC(C)C [CBK296721] | 106.803
CCc1nnc(CN(CC2CCCO2)C2CCC(C)CC2)n1C (stereo not shown) [CBK304475] | 106.238
COc1cc2nc(NC(=O)c3ccccc3)sc2cc1OC [CBK287701] | 86.7418
C=CCOC(=O)C1=C(C)OC(N)=C(C(=O)OCc2ccccc2)C12C(=O)Nc1ccccc12 (stereo not shown) [CBK262527] | 62.4241
CC(C)CCn1c(=O)c(C(=O)Nc2ccccc2S(N)(=O)=O)c(O)c2ccccc21 [CBK262294] | 80.4103
CCOC(=O)c1ccccc1NS(=O)(=O)c1cc(Cl)sc1Cl [CBK045448] | 56.619
O=C(N[C@@H](Cn1cc(Cl)c(=O)[nH]c1=O)C(=O)O)C1CCCCC1 [CBK289648] | 129.259
CC(=S)NCC1CC(c2ccc(N3CC[S+]([O-])CC3)c(F)c2)=NO1 (stereo not shown) [CBK017992] | 55.7962
COc1nc(OC)nc(OC2=CC(=O)CC(C)(C)C2)n1 [CBK020772] | 83.8185
O=C(O)c1cc(-c2ccc(-c3ccc(Cl)c(C(F)(F)F)c3)o2)nc2ccc(F)cc12 [CBK300501] | 119.549
CCOC(=O)N1CCN(C2CCCN(Cc3cnc(N(C)C)s3)C2)CC1 (stereo not shown) [CBK307041] | 103.367
CC(=O)NCC1CC(=O)N(c2ccc(Br)cc2)C1 (stereo not shown) [CBK008134] | 118.817
O=C(CCN1C(=O)COc2ccccc21)NCCCN1CCN(c2ccccc2F)CC1 [CBK294469] | 109.166
CCn1nc(C)c(CN2CCCC(c3cc4cccnc4[nH]3)C2)c1C (stereo not shown) [CBK284977] | 94.7397
Cc1ccc(CN(CCCN(C)C)Cc2cnc(C)n2C)o1 [CBK283188] | 101.943

SMILES | % of control remaining
O=C1NC(=S)N/C1=C/c1cc2c(cc1Cl)OCO2 [CBK261818] | 71.1347
O=C(O)c1cccc(NC(=O)c2cnc(-c3ccccc3)c(-c3ccco3)c2)c1 [CBK036710] | 122.406
O=C(C[S+]([O-])c1nc2ccccc2[nH]1)N1CCOCC1 (stereo not shown) [CBK016397] | 100.849
CCOc1ccc(S(=O)(=O)N2CCC(C(=O)N3CCOCC3)CC2)cc1Cl [CBK270288] | 124.78
CN1CCC(C(=O)Nc2cccc(Cn3cccn3)c2)C1 (stereo not shown) [CBK281991] | 92.4762
O=C(Nc1ccc2[nH]c(C3CCCCC3)nc2c1)C1CCCCC1 [CBK020680] | 60.9375
COc1nccnc1/C=C/c1ccccc1 [CBK106876] | 90.8473
c1ccc(CC(NCc2c[nH]c3ccccc23)c2ccccc2)cc1 (stereo not shown) [CBK262087] | 76.6872
CCC(CN1CCOCC1)NC(=O)Cc1c(C)[nH]c2ccc(F)cc12 (stereo not shown) [CBK282774] | 105.477
Cc1ncsc1CCOc1nc2cc(Cl)c(Cl)cc2nc1NC(C)C [CBK115744] | 103.807
O=c1[nH]c2ncc(-c3cccc(OC(F)(F)F)c3)nc2n1C1CCCCC1 [CBK064187] | 117.408
O=CN1CCc2c([nH]c3ccccc23)C12CCCN(Cc1ccc(C(F)(F)F)cc1)C2 (stereo not shown) [CBK039587] | 97.5608
COc1cc(C(=O)N2CCC3(CC2)NC(=O)c2cc(C)ccc2O3)ccc1C [CBK166276] | 65.7705
COc1cccc(OC)c1-c1cn2ccnc2c(NCCc2ccccn2)n1 [CBK066173] | 86.6959
O=C(CN(Cc1ccccc1Cl)S(=O)(=O)c1ccc(Cl)cc1)NC1CCCCC1 [CBK264659] | 99.0998
CCCNC(=O)Nc1ccc(Cl)c(C(=O)O)c1 [CBK287009] | 103.523
O=C(CCCSC1=NC(C(F)(F)F)CC(c2ccco2)N1)Nc1ccc(Cl)c(Cl)c1 (stereo not shown) [CBK268858] | 100.678
CCc1nc(N)nc(N2CCC3(CCC(CNC(C)=O)O3)CC2)c1C (stereo not shown) [CBK307168] | 40.9718
Cc1ccc(S(=O)(=O)N(CC(=O)N2CCN(C)CC2)Cc2ccc(Cl)cc2Cl)cc1 [CBK265144] | 116.689
O=C(CC1(O)C(=O)N(CCc2ccccc2)c2ccc(Br)cc21)c1ccncc1 (stereo not shown) [CBK293976] | 115.231
CCNc1cncc(-c2ccc(OC)cc2)n1 [CBK065370] | 117.915
CCn1nc(C)c(-c2cncn2CCn2nc(C)c(Cl)c2C)c1C [CBK281768] | 107.284
COc1c(C)cccc1C(=O)NC(=S)Nc1sc2c(c1C(N)=O)CCC2 [CBK265587] | 102.416
C#CCNC(=O)[C@@H]1Cc2cn(Cc3nccn3C)c3cccc(c23)[C@H](CC(C)C)N1 [CBK289424] | 101.926
Cc1ccc2[nH]c3c(c2c1)CCNC31CCN(CC2CCCCO2)CC1 (stereo not shown) [CBK039545] | 64.3335
Cc1ccc(F)c(S(=O)(=O)NC(C)Cc2ccccn2)c1 (stereo not shown) [CBK281427] | 95.8154
O=C(OCc1ccccc1)N1CCC(C2OCc3cc(-c4ccc(C(=O)N5CCCCC5)cc4)ccc3O2)CC1 (stereo not shown) [CBK153262] | 84.1888

SMILES | % of control remaining
O=C(CC1CCCCC1)Nc1snnc1-c1ccc(Cl)cc1 [CBK153245] | 109.916
CCN(CC)CCN1C(=O)C(O)=C(C(=O)c2cc3ccccc3o2)C1c1ccccn1 (stereo not shown) [CBK266413] | 121.769
CN1CCN(c2ccc(NC(=O)c3ccc(OCc4ccccc4)cc3)cc2Cl)CC1 [CBK269080] | 65.4641
COc1cccc(OC)c1-c1cn2ccnc2c(N[C@H](CO)C(C)C)n1 [CBK036586] | 71.9898
CN1CCN(N/C=C2/C(=O)N(c3ccc([N+](=O)[O-])cc3)N=C2c2ccccc2)CC1 [CBK262763] | 89.1146
CCOC(=O)c1c(NC(=O)Cn2cnc([N+](=O)[O-])n2)sc2c1CCC2 [CBK263042] | 107.429
CC(C)n1cc(CN2CCNC(=O)C2c2ccccc2C(F)(F)F)nn1 (stereo not shown) [CBK304732] | 90.0091
Cc1ccc([N+](=O)[O-])cc1/C=C(/C#N)c1nc2ccccc2s1 [CBK267085] | 62.2669
O=C(Nc1ccc2nonc2c1)N1CCOCC1 [CBK057530] | 64.9747
CCOc1cc(C=Cc2cc(C(=O)O)c3ccccc3n2)ccc1OC(F)F [CBK296952] | 93.1197
CSc1nc2ccccc2c2nc(-c3ccncc3)nn12 [CBK288566] | 84.4184
COc1ccc(N2C(=S)N(CC3CCCCC3)[C@H]3[C@H]4OC(=O)[C@H](C[C@H]4O)[C@H]32)cc1 [CBK288939] | 123.072
CCn1c2ccccc2c2cc(CN(C)Cc3ccccc3)ccc21 [CBK261901] | 89.7434
CCCCN(C(C)=O)c1c(CC)nc2ccc(C(=O)N(C)CCN(C)C)cn12 [CBK145739] | 94.9772
O=C(c1ccc2ncccc2c1)N1CCN(Cc2ccccc2)CC1 [CBK200175] | 119.602
C[S+]([O-])c1sc(Cl)c2c1C(=O)CCC2 (stereo not shown) [CBK005657] | 50.7169
CC(=O)N1CCc2cc(-c3cc4ccccn4c3)ccc21 [CBK285224] | 99.4216
Cc1cc(O)cc(C2CCCN(C(=O)c3ccc(F)c(F)c3)C2)n1 (stereo not shown) [CBK283406] | 102.695
CCCc1ccc(C(C)NC(=O)C2CC2C)cc1 (stereo not shown) [CBK057847] | 93.7782
CCC(CN1CCN(C)CC1)NC(=O)Cc1ccc2c(c1)CCC2 (stereo not shown) [CBK282784] | 93.9043
CN(C)CCN(C)c1cncc(-c2cccc(N)c2)n1 [CBK065270] | 111.491
CCOC(=O)c1cnn2c(O)cc(CN3CCCCC3)nc12 [CBK305585] | 105.964
O=S(=O)(Nc1cccnc1)N1CCOCC1 [CBK269362] | 89.0352
COC(=O)c1ccsc1NS(=O)(=O)c1ccc(Br)cc1 [CBK039058] | 102.51
COc1ccccc1CNCCCN1CCOCC1 [CBK278310C] | 109.953
